Measured values as given in PubChem BioAssay AID1362 (SRMLSC, 2008).
The list shows a part of the results. The main result of the screen is listed elsewhere. These columns were measured beside it and carry no call. Compounds called inactive in the main read-out are mostly missing here.

assay: growth inhibition of WT strain, primary screen, mitochondrial fusion inhibitor project, WT and mutant strains, chemical genetic (AID 1362); conditions: mitochondrial fusion phenotypic screen, at 10 µM; note: tested in S. cerevisiae

Row | SMILES | inhibition [%]
1 | Cc1ccc(C2CN(C)C3(C(=O)Nc4ccccc43)C23COc2ccccc2C3=O)cc1 (configuration not stated) | 21.8
2 | Cc1c(C)n(Cc2ccccc2)c2ccc(C(=O)OCCCN(C)C)cc12 | 85.5
3 | Cc1c(Cl)cccc1NC(=S)NCCC(c1ccccc1)c1ccccc1 | 55.7
4 | CC1CN(c2cc(-c3ccccc3)c3ccccc3n2)CC(C)O1 (configuration not stated) | 33.8
5 | O=C(NC(Cc1c[nH]c2ccccc12)C(=O)Nc1ccc(OC(F)(F)F)cc1)c1cccs1 (configuration not stated) | 12.8
6 | CCC1C/C(=C\c2cccnc2)C(=O)/C(=C/c2cccnc2)C1 (configuration not stated) | 48.9
7 | CCN1CCN(CCNC(=O)c2ccc3c(c2)N(Cc2ccc(F)cc2)C(=O)/C(=C/c2ccccc2)S3)CC1 | 57.6
8 | COc1cc2c(cc1NC(=S)Nc1cccc3ccccc13)oc1ccccc12 | 44.5
9 | Cc1ccc(OCCCCNC2CCCC(C)C2C)c(C)c1 (configuration not stated) | 59.8
10 | COc1ccccc1CNc1nc2nc(C)c(C)c(=O)n2[nH]1 | 5.95
11 | CC(C)(C)c1ccc(NC(=O)COC(=O)c2ccc([N+](=O)[O-])s2)cc1 | 89.3
12 | CC(C)N1C2OC(C3OC4C(O3)N(C(C)C)S(=O)(=O)N4C(C)C)OC2N(C(C)C)S1(=O)=O (configuration not stated) | 39.9
13 | COc1ccccc1Cn1c(/C=C/c2ccccc2)nc2ccccc21 | 22.7
14 | Cc1ccc(Cn2ncc3c(N4CCN(Cc5ccc(Cl)cc5)CC4)ncnc32)cc1 | 42.4
15 | CC(C)c1ccc(/C=C/C(=O)NCCCc2ccccc2)cc1 | 41.8
16 | C[C@H]1COC2=C1C(=O)C(=O)c1c2ccc2c1CCCC2(C)C | 60.3
17 | O=[N+]([O-])c1cc(C(F)(F)F)ccc1NCCc1c[nH]c2ccccc12 | 9.5
18 | Cc1ccc(C)c(C(=O)COC(=O)c2cc([N+](=O)[O-])ccc2NCCO)c1 | 1.94
19 | O=c1c2c(nc(NCCO)n1CC1CCCCC1)-c1ccccc1CC21CCCC1 | 31.2
20 | O=C1C=C(Nc2ccccc2)c2ccccc2C1=O | 71.9
21 | Clc1cccc(Cl)c1Cn1cnc2c(N3CCCCCC3)ncnc21 | 43.4
22 | CCCCC1CCC(c2nc(-c3cccnc3)no2)CC1 (configuration not stated) | 53.6

Row | SMILES | inhibition [%]
23 | O=C(CSc1nc2ccccc2[nH]1)Nc1nc(-c2cccc(Br)c2)cs1 | 64
24 | O=S(=O)(c1ccccc1)N1N=C(c2ccccc2)CC1c1ccccc1 (configuration not stated) | 58.6
25 | CC1CCc2sc3nc(NCc4ccco4)n4ncnc4c3c2C1 (configuration not stated) | 79.5
26 | O=C(N=Nc1c(O)[nH]c2ccc(Br)cc12)c1ccccc1-n1cccc1 | 43
27 | CC1CC2(CCCC2)N(C(=O)c2ccccc2)Cc2ccccc21 (configuration not stated) | 17.6
28 | O=C(O)c1cccc(N/N=C/C2=C(Cl)c3cc(Cl)ccc3SC2)c1 | 93.4
29 | On1c2c(c3c4nonc4ccc31)CCCC2 | 57.1
30 | CCCCNC(=S)Nc1ccccc1Cc1ccccc1 | 57.7
31 | Cc1onc(-c2ccccc2Cl)c1C(=O)Nc1nnc(-c2cccc([N+](=O)[O-])c2)s1 | 14.8
32 | C=CCOC(=O)C1=C[C@@H](c2coc3ccccc3c2=O)C[C@@H](OCc2ccc(CO)cc2)O1 | 33.3
33 | CCCCCCC1CCC(c2nc(-c3ccncc3)no2)CC1 (configuration not stated) | 59
34 | Cc1ccc(NC(=S)NCc2ccc3c(c2)OCO3)cc1C | 53.9
35 | Fc1ccc(Sc2ccccc2CNC2=NCCN2)cc1 | 60.3
36 | COc1ccc(/C=C2\SC(N3CCc4ccccc4C3)=NC2=O)cc1 | 13.1
37 | CC1CCN(c2nc(CN3CCCCC3)nc3scc(-c4ccccc4)c23)CC1 | 26.5
38 | O=C1NCN(c2ccccc2)C12CCN(CCCC(c1ccc(F)cc1)c1ccc(F)cc1)CC2 | 36.9
39 | N#CC(C#N)=C1C=CC=CN1/C(=C\c1ccccc1Cl)C(=O)c1ccccc1 | -8.32
40 | N=c1c(C(=O)NCc2ccco2)cc2c(=O)n3ccccc3nc2n1Cc1ccc(Cl)cc1 | 8.14
41 | COc1ccc(/C=C/c2cc(-c3ccc(C)cc3)o[n+]2C)cc1 | 46.6
42 | Clc1ccc(-c2cc3ccccc3nc2N2CCCC2)cc1 | 66
43 | CCN(CC)CCCn1c(C)cc2c(c1=O)C(c1cccc(Cl)c1)C(C#N)=C(N)O2 (configuration not stated) | 1.78
44 | CCCCCc1ccc(OCCOCCn2c[n+](C)c3ccccc32)c(CCCCC)c1 | 92.6

Row | SMILES | inhibition [%]
45 | CC(CC(=O)Nc1ccc(Cl)c([N+](=O)[O-])c1)c1ccccc1 (configuration not stated) | 68.3
46 | C#CC[N+](C)(C)CCCCCCCCCCCC | 73.8
47 | O=C(c1ccccn1)N1N=C2/C(=C/c3ccc(F)cc3)CCCC2C1c1ccc(F)cc1 (configuration not stated) | 17.9
48 | CC(C)c1ccc(S(=O)(=O)c2ccc(NN)cc2)cc1 | 41.2
49 | Cc1ccc(CN2CCN(/N=C/c3ccc(C(F)(F)F)cc3)CC2)c(C)c1 | 20.3
50 | Cc1ccc(Oc2nc(CN3CCOCC3)nc3sc4c(c23)CCC(C)C4)cc1 (configuration not stated) | 43.2
51 | CC(C)c1nc(N2CCN(C(=O)c3ccco3)CC2)c2c3c(sc2n1)CCCC3 | 55.7
52 | COc1ccccc1-n1c(SCC(=O)c2ccc(O)cc2O)nc2cc([N+](=O)[O-])ccc21 | -15
53 | CC(=O)N1c2ccc3ccccc3c2C(C)CC12CCCCC2 (configuration not stated) | 51.7
54 | Cn1c(SCc2c(F)cccc2Cl)nc2c(c1=O)SCC2 | 48.9
55 | Cc1ccc(C)c(N2CCN(C(=O)C3CCN(c4nc(C)cc(C)n4)CC3)CC2)c1 | 17.8
56 | Clc1ccc(-c2nnc(NCc3ccccc3)c3ccccc23)cc1 | 62.7
57 | O=C(Nc1ccc(Br)cc1)c1cccn1-c1ncc(C(F)(F)F)cc1Cl | 31.4
58 | COC(=O)CCC(=O)Nc1sc(Cc2ccccc2)c(C)c1C(N)=O | 31.4
59 | CC(C)C(c1nnnn1C(C)(C)C)N1CCC(Cc2ccccc2)CC1 (configuration not stated) | -1.74
60 | CCOC(=O)Nc1nc(-c2ccccc2)c(C(=O)c2ccc(Cl)cc2)s1 | 27.9
61 | Cc1[nH]c2ccc(F)cc2c1CCN(Cc1ccco1)C(=S)NC(C)(C)C | 9.14
62 | Cc1ccc(S(=O)(=O)N2c3cc(C)ccc3OCC2C(C)(C)C)cc1 (configuration not stated) | 54.9
63 | Cc1ccc(NC2=C(NC(=O)c3ccccc3)C(=O)c3ccccc3C2=O)cc1Cl | 23.3
64 | C[n+]1c2n(c3ccccc31)N=C(c1ccc(-c3ccccc3)cc1)CS2 | 77.5
65 | Cc1cc(Cl)ccc1OCC(=O)N1CCCN(C(=O)COc2ccc(Cl)cc2C)CC1 | 27.2
66 | COc1ccc(-c2noc(-c3ccccc3-c3ccccc3)n2)cc1OC | 5.13

Row | SMILES | inhibition [%]
67 | Cc1ccc(CSc2nnc(-c3ccccc3N)c(=O)[nH]2)cc1 | 56.5
68 | O=[N+]([O-])c1ccccc1/C=N/n1c(C2CCCCC2)n[nH]c1=S | -2.49
69 | CCCN(CCC)c1nc2ccccc2nc1C(C#N)C(=O)OC(C)COC (configuration not stated) | 30.9
70 | Cc1cc(NCCCn2ccnc2)n2ncc(-c3ccc(Cl)cc3)c2n1 | -46.6
71 | O=S(=O)(NCCSCc1ccc(Cl)cc1Cl)c1ccc2c(c1)OCCO2 | 25.8
72 | Oc1ccc(/C=N/Nc2cc(N3CCCC3)nc(N3CCCC3)n2)cc1 | 56.7
73 | C#C[C@]1(O)CC[C@H]2[C@@H]3CCc4cc(OC5CCCC5)ccc4[C@H]3CC[C@@]21C | 60.2
74 | O=C(NC(=S)NC1CCCc2ccccc21)c1ccco1 (configuration not stated) | 61.4
75 | S=C(Nc1ccc(Cl)c(Cl)c1)NC1CCN(Cc2ccccc2)CC1 | 73.4
76 | COc1cccc(N2CCN(c3ncnc4c3[nH]c3ccccc34)CC2C)c1 (configuration not stated) | 30.5
77 | Clc1ccc(-c2csc3ncnc(N4CCc5ccccc5C4)c23)cc1 | -8.84
78 | O=c1c2ccccc2c(-c2ccccc2)nn1Cc1c(Cl)cccc1Cl | 29
79 | C=CCN(CC=C)c1nc2ccccc2nc1C(C#N)C(=O)OCCOC (configuration not stated) | 42.2
80 | Brc1ccc(C2=CC(c3cccs3)n3ncnc3N2)cc1 (configuration not stated) | 45.1
81 | CC1=NN(c2nc3ccccc3[nH]2)C(=O)/C1=C/N(C)C | 81.7
82 | CC(=O)Oc1c(Cl)cc(Cl)cc1/C=C/c1ccc2ccccc2n1 | 42.2
83 | Cc1ccc2nc(N(CCCN(C)C)C(=O)c3sc4ccccc4c3Cl)sc2c1 | 75
84 | O=C(N1CCOCC1)N1CCN(C(c2ccccc2)c2ccccc2)CC1 | -2.64
85 | Cc1c(Cl)cccc1NC(=S)NCC1COc2ccccc2O1 (configuration not stated) | 58.9
86 | COc1ccc(-c2nc(-c3ccccn3)no2)cc1 | 52.5
87 | COc1cccc(OC)c1C(=O)NC(C)C12CC3CC(CC(C3)C1)C2 (configuration not stated) | 57.2
88 | Cc1cc(Cl)ccc1OCC(=O)Nc1nc(-c2cccs2)cs1 | -4.43

Row | SMILES | inhibition [%]
89 | O=C(CSCC(=O)N1CCCCC1)Nc1nc(-c2ccccc2)c(-c2ccccc2)s1 | -2.61
90 | CC(C)OC(=O)C(=O)NNc1ccccc1 | 61.8
91 | CCOc1ccc(-c2nc(N)ncc2Oc2ccccc2Br)c(O)c1 | 16.1
92 | COc1ccc(C2=NN(C(=O)c3cccs3)C(c3ccccc3O)C2)cc1 (configuration not stated) | 17.7
93 | C=CCOc1ccc2ccccc2c1CNCCCN1CCOCC1 | -8.76
94 | COc1ccc(NC(=O)c2cc(-c3ccccc3Cl)no2)cc1 | 7.14
95 | CCOCCCNC(=S)N1CCCN(c2nc3c(C)c(C)ccc3cc2C#N)CC1 | 18.5
96 | CCOc1ccc(S(=O)(=O)N2CCN(C(=O)c3cc4c(s3)CCCC4)CC2)cc1 | 3.08
97 | Cc1cc(C)c(-c2noc(C(=O)OC(C)(C)C)c2C(=O)OC(C)(C)C)c(C)c1 | -3.23
98 | C(=N\Nc1nc(Nc2ccccc2)nc(Nc2ccccc2)n1)/c1cccnc1 | 21.4
99 | CC1CN(c2ncnc3c2c(-c2ccccc2)cn3-c2ccc(F)cc2)CC(C)O1 (configuration not stated) | -16.1
100 | CC1(C)CC(=O)c2c(O)cc(OCc3ccc([N+](=O)[O-])cc3)cc2O1 | 2.05
101 | COc1ccc(-c2[nH]c(-c3ccc4c(c3)OCO4)nc2-c2ccccc2)cc1 | 33.5
102 | NC(=O)c1cc(Br)cc2c3c([nH]c12)CCCC3 | 49.3
103 | CC1(C)Cc2ccccc2-c2nnc(SCC(=O)N3CCN(c4ccccc4)CC3)n21 | 38.4
104 | C/C(=N\NC(N)=S)C1C2C3CC4C5CC(C42)C1C53 (configuration not stated) | 64.5
105 | CCCCNC(=S)N1CCN(c2ccccc2Cl)CC1 | 45.9
106 | Cc1ccccc1Nc1c(-c2ccccn2)nc2ccccn12 | 54.3
107 | C/C(=N\Nc1nc2c(s1)CCCC2)c1ccc(Cl)cc1 | 67.2
